According to the RNAGym collection of RNA variant scans (doi:10.1093/nar/gkz1192):
The source gives no read counts; variants with many changes may rest on few reads.

B1: CPEB3 Ribozyme (parent)
chain: UAACAGGGGGCCACAGCAGAAGCGUUCACGUCGCAGCCCCUGUCAGAUUCUGGUGAAUCUGCGAAUUCUGCUGUAUAUCUC

Variants of: B1
Experiment: self-cleavage, relative activity (ratio to wild type); higher = more cleavage; in vitro, sequencing
Procedure, shortened: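 After error-prone PCR and barcoding, CPEB3 ribozyme mutant libraries were transcribed with T7 RNA polymerase at 37°C for 5 hours, then given 15 min with DNase I before an EDTA stop, and they cleaved during both steps. Reverse transcription with template switching preceded Illumina sequencing. Relative activity divides a variant's cleaved/total read fraction by the unmutated ribozyme's. At least 5 reads were required per variant, and three batches were averaged.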

**Q.** For CAACAGGGGGUCUCAGCAGAAGCGUUCACGACGCAGCCCCUGCCAGAUUCUGGUGAAUCUGCGAAUUCCGCUGUAUAUCUC [U1C C11U A13U U31A U43C U69C], which self-cleavage is on record?
**A.** The self-cleavage was 0.04.

**Q.** For CAACAGGGGGUCACGGCAGAAGCGUUCGCGUCGCAGCCUCUGUCGGAUUCUGGUGAAUCUGCGAAUUCUGCUGUAUAUCUC [U1C C11U A15G A28G C39U A45G], which self-cleavage is on record?
**A.** Its self-cleavage is 0.06.

**Q.** For CAACAGGGGGUCACAGCUGAAGCGUUCACGUCGCAGCCCCUGUCAGAUUCUGGUGAAUCUGCGAAUUCUGCUGUAUAUCUC [U1C C11U A18U], which self-cleavage is on record?
**A.** Its self-cleavage is 0.34.

**Q.** For CAACAGGGGGCGUCAGCAGAAGCGUUCACGUCGCAGCCCCUGUCAGAUUCUGGUGAAUCUGCGAAUUCUGCUGUAUAUCUC [U1C C12G A13U], which self-cleavage is on record?
**A.** Its self-cleavage is 0.79.

**Q.** For CAACAGGGGGCUACAGCAGAAGCGUUCACGUCGCGGCCCCUGUCAGAUUCUGGUGAAUCUGCGAAUUCUGCUGUAUAUCUC [U1C C12U A35G], which self-cleavage is on record?
**A.** Its self-cleavage is 1.09.

**Q.** For CAACAGGGGGCUACAGCAGAAGCGUCCACGUCGCAGCCCCUGCCAGAUUCUGGUGAAUCUGCGAAUUCUGCUGUAUUUCUC [U1C C12U U26C U43C A77U], which self-cleavage is on record?
**A.** The self-cleavage was 1.12.

**Q.** Which self-cleavage does the source give for CAACAGGGGGCUACAGCAGAAGCGUUCACGUCGCAGCCCCUGUCAGAUUCUGGUGAAUCAGCGAAUUCUGCUGUAUAUCUC [U1C C12U U60A] here?
**A.** The self-cleavage was 0.84.

**Q.** With CAACAGGGGGCCAUAGCAGAAGCGUUCACGUCGCAGCCCCUGUCUGAUACUGGUGAAUCUGCGAAUUCUGCUGUAUAUCUC [U1C C14U A45U U49A] as the variant, how does the self-cleavage read?
**A.** Its self-cleavage is 0.07.

**Q.** With CAACAGGGGGCCAUAGCAGAAGCGUUCACGUCGCAGCCCCUGUCAGAUUCUGGUGAAUCUGCGGAUUCUGCUGUAUAUCUC [U1C C14U A64G] as the variant, how does the self-cleavage read?
**A.** Its self-cleavage is 0.97.

**Q.** Which self-cleavage does the source give for CAACAGGGGGCCACAGGAUAAGCGUUCACGUCGCAGCCCCUGUCAGAUUCUGGUGAAUCUGCGAAUUCUGCUGUAUAUCUC [U1C C17G G19U] here?
**A.** Its self-cleavage is 0.17.

**Q.** Which self-cleavage does the source give for CAACAGGGGGCCACAGUAGAAGCGUUCACGUCGCAGCCCCAGUCAAAUUCUGGUGAAUCUGCGAAUACUGCUGUAUAUCUC [U1C C17U U41A G46A U67A] here?
**A.** Its self-cleavage is 0.14.

**Q.** For CAACAGGGGGCCACAGUAGAAGCGUUCACGUCGCAGCCCCUGUCAGAUUCUGGUGAAUCUGCGAAUUCUGCAGUAUAUCUC [U1C C17U U72A], which self-cleavage is on record?
**A.** The self-cleavage was 0.22.

**Q.** Which self-cleavage does the source give for CAACAGGGGGCCACAGCAGAAGGGUUCACGUCGCAGCCCCUGACAGAUUCUGGUGAAUCUGCGAAUGCUGCUGUAUAUCUC [U1C C23G U43A U67G] here?
**A.** The self-cleavage was 0.05.

**Q.** For CAACAGGGGGCCACAGCAGAAGCGUUAGCGUCGAAGCCCCUGUCAGAUUCUGGUGAAUCUGCGAAUUCUGCUGUAUAUCUC [U1C C27A A28G C34A], which self-cleavage is on record?
**A.** Its self-cleavage is 0.26.

**Q.** For CAACAGGGGGCCACAGCAGAAGCGUUCAGGUCGCAGCCCCUGUCAGAUUCUGGUGAACCUGCGAAUUCUGCUGUAUAUCUC [U1C C29G U58C], which self-cleavage is on record?
**A.** Its self-cleavage is 0.32.

**Q.** Which self-cleavage does the source give for CAACAGGGGGCCACAGCAGAAGCGUUCAUGUCGCAGCCCCUGUCAGAUCCUGGUGAAUCUGCGAAUUCAGCUGUAUAUCAC [U1C C29U U49C U69A U80A] here?
**A.** The self-cleavage was 0.05.

**Q.** With CAACAGGGGGCCACAGCAGAAGCGUUCACGUCGUAGCCCCCGUCAGAUUCUGGUGAAUCUGCGAACUCUGCUGUAUAUCUC [U1C C34U U41C U66C] as the variant, how does the self-cleavage read?
**A.** Its self-cleavage is 0.12.

**Q.** With CAACAGGGGGCCACAGCAGAAGCGUUCACGUCGCAGCCUCUGUCAGAUUCUGGUGAAUCAGCGAAUUCUGCUGUACAUCUC [U1C C39U U60A U76C] as the variant, how does the self-cleavage read?
**A.** Its self-cleavage is 0.3.

**Q.** Which self-cleavage does the source give for CAACAGGGGGCCACAGCAGAAGCGUUCACGUCGCAGCCCAUGUCUGAUUCUGGUGAAUCUGCGAAUUCUGCUGUAUAUCUC [U1C C40A A45U] here?
**A.** The self-cleavage was 0.06.

**Q.** With CAACAGGGGGCCACAGCAGAAGCGUUCACGUCGCAGCCCAUGUCAGAUUCUGGUGAAUCUGCGAAUUCCGCUGUAUAUCUC [U1C C40A U69C] as the variant, how does the self-cleavage read?
**A.** Its self-cleavage is 0.05.

**Q.** With CAACAGGGGGCCACAGCAGAAGCGUUCACGUCGCAGCCCUUGUAAGAUUCUGGUGAAUCUGCGAAUUCUGCUGUAUAUCUC [U1C C40U C44A] as the variant, how does the self-cleavage read?
**A.** Its self-cleavage is 0.43.

**Q.** For CAACAGGGGGCCACAGCAGAAGCGUUCACGUCGCAGCCCCUGUAAGAUUCUGGUGAAUCUGAGAAUUCUGCUGUAUAUCUC [U1C C44A C62A], which self-cleavage is on record?
**A.** Its self-cleavage is 0.22.

**Q.** Which self-cleavage does the source give for CAACAGGGGGCCACAGCAGAAGCGUUCACGUCGCAGCCCCUGUUAGAUUCUGGUGAAUCUGCGGAAUAUGCUGUAUAUCUC [U1C C44U A64G U66A C68A] here?
**A.** The self-cleavage was 0.05.

**Q.** With CAACAAGGGGCUACGGCAGAAGCGUUCUCGUCGCUGCCCCUGUCAGAUUCUGGUGAAUCUGCGAAUUCUGCUGUAUAUCUC [U1C G6A C12U A15G A28U A35U] as the variant, how does the self-cleavage read?
**A.** Its self-cleavage is 0.05.

**Q.** Which self-cleavage does the source give for CAACAUGGGGCCACAGCAGAAGCGUUCACGUCGCAGCCCCUGUCAGAUUCUGGUGAUUCUGCGAAUUCUGCCGUAUACCUC [U1C G6U A57U U72C U78C] here?
**A.** Its self-cleavage is 0.07.

**Q.** For CAACAGAGGUCCACAGCAGAAGCGUUCACGUCGCAGCCCCCGUCGGAUUCUGGUGAAUCUGCUAAUUCUGCUGUAUAUCUC [U1C G7A G10U U41C A45G G63U], which self-cleavage is on record?
**A.** Its self-cleavage is 0.05.

**Q.** Which self-cleavage does the source give for CAACAGAGGGCCACAGCAGAAGCGUUCACGUCGCAGCCCCUGUCAGAUUCUGUUGAAUCUGCGAAUUCUGCUGUAUAUCUC [U1C G7A G53U] here?
**A.** The self-cleavage was 0.4.

**Q.** For CAACAGUGGGCCACAGCAGAAGCGCUCACGUCGCAGCCACUGUCAGAUUCUGGUGAAUCUGCGAAUUCUGCUGUAUAUCUC [U1C G7U U25C C39A], which self-cleavage is on record?
**A.** Its self-cleavage is 0.25.

**Q.** Which self-cleavage does the source give for CAACAGGAGGCCACAGCGGAAGCGUUCACGUCGCUGCCCCUGUCAGAUUCUGGUGGAUCUGCGAAUUCUGCUGUAUAUCUC [U1C G8A A18G A35U A56G] here?
**A.** Its self-cleavage is 0.04.

**Q.** With CAACAGGAGGCCACAGCGGAAGCGUUCACGUCGCUGCCCCUGUCAGAUUCUGGUGAAUCUGCGGAUUCUGCUGUAUAUCUC [U1C G8A A18G A35U A64G] as the variant, how does the self-cleavage read?
**A.** Its self-cleavage is 0.05.

**Q.** Which self-cleavage does the source give for CAACAGGCGGCCACGGCAGAAGCGUUCUCGUCGCAGCCCCUGUCAGAUUCAGGUGAAUCUGCGAAUCCUGCUGUGUAUCUC [U1C G8C A15G A28U U51A U67C A75G] here?
**A.** Its self-cleavage is 0.03.

**Q.** With CAACAGGCGGCCACAGCAGAAACGUUCUAGUUGCAGCCCCUGUCAGAUUCUGGUGAAUCUGCGAACUCUGCUGUAUAUCUC [U1C G8C G22A A28U C29A C32U U66C] as the variant, how does the self-cleavage read?
**A.** The self-cleavage was 0.03.

**Q.** Which self-cleavage does the source give for CAACAGGUGGCCACAGCUGAAGCGUUCACGUCGCAGCCCCUGUCAGAUUCUGGUGAAUCUGCGAAUUCUGCUGUAUAUCUC [U1C G8U A18U] here?
**A.** Its self-cleavage is 0.06.

**Q.** With CAACAGGUGGCCACAGCAGAAGCGUUCACGUCGCAGCCCCUGUCAGAUUCUGGGGAAUCUGCGAAUUCUGCUGUAUAUCUC [U1C G8U U54G] as the variant, how does the self-cleavage read?
**A.** Its self-cleavage is 0.25.
